Some of the results follow.
Test system: PfSIP2 AP2 domain 1 (GST-tagged)
Test: gcPBM binding intensity (ln(normalized median fluorescence intensity)); higher = stronger DNA binding
In short: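 GST-fused DNA-binding domains of P. falciparum, expressed in E. coli, were applied at about 25 μg on average for 1 h to an Agilent 4 × 180k array of primer-extended double-stranded 36-bp intergenic genomic probes and negative controls. Binding intensity is the highest Masliner-normalised natural-log median intensity across replicate spots of either probe orientation, measured with Alexa488 anti-GST antibody and a 488 nm scan.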

Going from “TTCTTTTTATTTATATTTTCCCCTCTCTATAGCTAT [XGTACX_negctrl_site102]” to “CAAAATAATAATAAAAGTACTAACATATTTATGAAA [XGTACX_site6078]”, the “gcPBM binding intensity (ln)” value falls from 7.15 to 6.94.

Going from “ATAATTCAAAAAAACACACAAATTACAAAATAAACT [CACACA_site6264]” to “TACAAACACCCATATACACACAAAAAAAAAATAAAA [CACACA_site5421]”, the “gcPBM binding intensity (ln)” value falls from 7.06 to 7.05.

First: AGAAAAACTTATATGATACACACGATAAACAAAATA [CACACA_site1038]
Second: TATATAATATATATATGTACATATATATATGTTTTT [XGTACX_site3347]
The “gcPBM binding intensity (ln)” value of the first is lower: 6.95 for the first, 7.06 for the second.

Compared with “TATACATAAAACAGTTCACACATTGTATGAATATAT [CACACA_site4751]”, “GGACAACAAACAAACACACACAAAAAAAAAATAAAA [CACACA_site3791]” is higher in “gcPBM binding intensity (ln)” value: 7.05 for the first, 7.13 for the second.

First: TTGTTTCTTTTTTTTTGTACATATATATTGTATATT [XGTACX_site7602]
Second: AATTTTTCAAATTAATGTACTTGTTATAAATTGTAA [XGTACX_site5428]
The “gcPBM binding intensity (ln)” value of the first is higher: 7.25 for the first, 6.92 for the second.

Going from “TACGTATTTTAATATTTACACACTTATTTTTTATAT [CACACA_site7924]” to “GGCAATACATAATAATGTACATAATTATATAATATT [XGTACX_site3739]”, the “gcPBM binding intensity (ln)” value falls from 7.07 to 7.01.

Going from “TATATCTGTTTATATTGTACACATATATATATATAT [XGTACX_site714]” to “TAAATATATTAATACACACACGATATGTACAAAAAA [CACACA_site540]”, the “gcPBM binding intensity (ln)” value falls from 9.28 to 7.

Compared with “TATATATATATATAATGTACATATAATATATTTATT [XGTACX_site7892]”, “TGCATATACGCAAGCACACATATATATATATATATA [CACACA_site1069]” is higher in “gcPBM binding intensity (ln)” value: 9.04 for the first, 9.42 for the second.

Compared with “TTTTGATTTCCTATTGCACACTTTTTTTAAGTTTAT [CACACA_site1056]”, “GCTTAATGTCATATATCACACATGAAAATATATATA [CACACA_site5089]” is higher in “gcPBM binding intensity (ln)” value: 7.21 for the first, 7.24 for the second.

First: ATTAATTTTAATAAAGGTACACGTAGTTTTTTATTA [XGTACX_site7868]
Second: TTAAAATTAAAAATGCGTACACATATACATAAAAAA [XGTACX_site1915]
The “gcPBM binding intensity (ln)” value of the first is lower: 6.91 for the first, 7.22 for the second.

Compared with “AACAAAACCTTATATGTACACACATATACATCACAC [CACACA_site9037]”, “TATATATATATATATTGTACTGAACGTTTTTTTTTG [XGTACX_site8060]” is higher in “gcPBM binding intensity (ln)” value: 7.44 for the first, 9.25 for the second.

Going from “ACAGCTACCAGATACTGTACTTTTCTCCAGACTGCA [XGTACX_site2541]” to “AATTTATAATTATAGAGTACATATTTTTAATATATA [XGTACX_site2566]”, the “gcPBM binding intensity (ln)” value rises from 6.68 to 6.84.

Going from “ATATACACTTAATTTTTTATAAAAAAAAATTTATAT [CACACA_negctrl_site498]” to “GTAATAATTTTTTGTAGTACACAAAAATTCATATTT [XGTACX_site2699]”, the “gcPBM binding intensity (ln)” value rises from 7.06 to 7.15.

First: ATGTGATATAAGTACACACACATATGTATTTATAAC [CACACA_site6942]
Second: TATATTTTGTTCTTTCCACACACAAATACATATATT [CACACA_site9348]
The “gcPBM binding intensity (ln)” value of the first is lower: 7.1 for the first, 7.13 for the second.

Going from “ATATACATAATCTTCTTGCACTTTTTTTTTTTTTTT [GTGCAC_site9410]” to “AGGATTAAAAAAACATGTACGTATTTAAATATATTT [XGTACX_site8774]”, the “gcPBM binding intensity (ln)” value falls from 8.96 to 7.1.

Compared with “TACTGGTATCGATATAGTACATATAATATTATGTTA [XGTACX_site7490]”, “AATTGAATAAATTAAACATGCACAGATGTTCTATTT [TGCATGCA_site692]” is lower in “gcPBM binding intensity (ln)” value: 7.03 for the first, 6.89 for the second.

Compared with “GTATAAAAAAATAAAAGTACAAAAAAAAAAGACTGA [XGTACX_site186]”, “AAATAAAAAATATGAACACACATATATAACAAAATA [CACACA_site261]” is lower in “gcPBM binding intensity (ln)” value: 7.18 for the first, 7.14 for the second.

Compared with “TTTTTTTTTTTTTTTTTTTTTTTTTTTTTTTTTTTT [CACACA_negctrl_site104]”, “ATATAAATAAAATATACACACATAAATATAACGACA [CACACA_site1637]” is lower in “gcPBM binding intensity (ln)” value: 9.09 for the first, 7.12 for the second.

Compared with “ACGAAGATTTATCTTGCACACGCAAAAAAAAAAAAA [CACACA_site7933]”, “AACATTTCCTTTCTGTGTACATATAAACCCATCTAT [XGTACX_site2071]” is higher in “gcPBM binding intensity (ln)” value: 7.06 for the first, 7.29 for the second.

First: ATTATATTTTGTAAATGTACATTTATATATTTTGTA [XGTACX_site1226]
Second: AAAAAAAAAAAAAAAGCATGCACATATTATTTTTTT [TGCATGCA_site416]
The “gcPBM binding intensity (ln)” value of the first is lower: 6.95 for the first, 7.52 for the second.

Compared with “ATTCATAAACGTGTGTTAATATGAATTTAAACATAA [XGTACX_negctrl_site213]”, “TTAATAATTAATTATAGTACACATTTATATTAATAA [XGTACX_site190]” is higher in “gcPBM binding intensity (ln)” value: 6.79 for the first, 7.03 for the second.

Going from “TTATTTAAAAAATTTTTAAATATACAAAAAAAAAAA [TGCATGCA_negctrl_site464]” to “ATTATAAGAAGGGGGGGTACATAAATATAAATGTAT [XGTACX_site5624]”, the “gcPBM binding intensity (ln)” value rises from 6.88 to 9.13.
